About 14,000 (4.5%) of roughly 310,000 compounds showed an effect of 50% or more. The effect is printed as a negative number. This is one part of the list.
These compounds were tested against human ether-à-go-go-related gene (hERG) potassium channel (human, UniProt Q12809) (assay: primary screen, population patch clamp on CHO cells stably expressing hERG).
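Note: peak tail current of the secondary pulse compared with the same well before compound.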

human ether-à-go-go-related gene (hERG) potassium channel, sequence (Q12809 whole entry, looked up): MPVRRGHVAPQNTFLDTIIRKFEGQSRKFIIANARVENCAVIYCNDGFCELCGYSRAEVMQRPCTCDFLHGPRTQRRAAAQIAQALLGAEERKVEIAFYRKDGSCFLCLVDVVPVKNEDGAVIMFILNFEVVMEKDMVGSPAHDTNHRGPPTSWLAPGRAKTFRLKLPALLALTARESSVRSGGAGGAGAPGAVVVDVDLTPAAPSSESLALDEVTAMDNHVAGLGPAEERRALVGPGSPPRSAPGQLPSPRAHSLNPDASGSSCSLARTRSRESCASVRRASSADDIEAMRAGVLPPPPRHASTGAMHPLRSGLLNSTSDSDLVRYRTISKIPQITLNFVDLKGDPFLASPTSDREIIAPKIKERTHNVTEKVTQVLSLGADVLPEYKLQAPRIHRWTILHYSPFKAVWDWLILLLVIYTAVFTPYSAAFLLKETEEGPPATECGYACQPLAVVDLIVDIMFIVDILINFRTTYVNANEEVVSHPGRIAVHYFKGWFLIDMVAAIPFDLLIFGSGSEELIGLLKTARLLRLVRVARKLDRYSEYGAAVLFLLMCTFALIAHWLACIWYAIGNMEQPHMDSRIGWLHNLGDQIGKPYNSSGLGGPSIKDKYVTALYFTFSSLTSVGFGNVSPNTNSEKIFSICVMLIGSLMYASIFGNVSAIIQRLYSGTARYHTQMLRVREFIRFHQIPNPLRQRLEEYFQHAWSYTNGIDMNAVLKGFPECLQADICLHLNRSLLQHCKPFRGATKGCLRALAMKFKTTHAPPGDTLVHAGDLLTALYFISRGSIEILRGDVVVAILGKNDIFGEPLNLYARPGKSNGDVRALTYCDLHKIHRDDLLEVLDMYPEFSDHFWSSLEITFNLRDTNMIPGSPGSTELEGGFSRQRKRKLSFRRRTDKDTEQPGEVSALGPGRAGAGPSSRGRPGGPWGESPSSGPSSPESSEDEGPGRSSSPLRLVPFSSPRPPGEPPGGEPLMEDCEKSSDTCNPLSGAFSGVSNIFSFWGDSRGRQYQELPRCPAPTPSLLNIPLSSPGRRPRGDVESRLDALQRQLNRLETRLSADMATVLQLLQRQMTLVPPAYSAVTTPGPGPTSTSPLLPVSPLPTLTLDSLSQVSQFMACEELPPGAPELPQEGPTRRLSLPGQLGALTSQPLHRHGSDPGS

SMILES | hERG current change (%, negative = inhibition) at 10uM
O=C1CC(C(=O)N2CCc3ccccc32)CN1c1ccc(F)cc1 (stereo not shown) | -55.3%
CCOC(=O)C1=C(C)Nc2[nH]c(=O)[nH]c(=O)c2C1c1cccs1 (stereo not shown) | -3.78%
NS(=O)(=O)c1ccc(CCNC(=O)Cc2ccc(S(=O)(=O)N3CCCC3)s2)cc1 | 29.9%
COc1ccc(-n2c(=O)cc(N3CCN(c4ccccc4F)CC3)[nH]c2=O)cc1 | -5.05%
COc1ccccc1CNC(=O)c1ccc2c(=O)n3c(nc2c1)CCCCC3 | -21.5%
O=c1[nH]c(CN2CCN(Cc3ccccc3)CC2)nc2scc(-c3ccccc3)c12 | -37.5%
CC(=O)Nc1ccc(S(=O)(=O)NNC(=O)COc2cccc3ccccc23)cc1 | -0.107%
CNC[C@@H](CC1CCCCC1)NC[C@H](CC(C)C)NCCc1cccc(C(F)(F)F)c1 | -6.97%
COc1cc([C@@H]2CC=C(C(=O)O)[C@H](c3ccc(Cl)cc3)N2S(=O)(=O)c2ccc(C)cc2)cc(OC)c1OC | -0.179%
O=C(/C=C/c1cccc([N+](=O)[O-])c1)N1CCN(Cc2ccccc2)CC1 | -47.5%
CCCOC(=O)c1ccc(NC(=O)c2nc3nc(C)cc(C)n3n2)cc1 | 0.372%
O=C(c1cc(COc2ccc(F)cc2Cl)on1)N1CCCCCCC1 | 0.909%
CC(=O)C(C(C)=O)C(NC(=O)c1cccnc1)(C(F)(F)F)C(F)(F)F | 1.66%
O=C(NC1CCCCC1)C1CCCN1C(=O)Nc1ccccc1 (stereo not shown) | 16.7%
Cc1ccc(S(=O)(=O)Oc2ccc(/C=C3/N=C(c4ccccc4)OC3=O)cc2)cc1 | -1.71%
O=C(OCC1OC(n2cc(Br)c(=O)[nH]c2=O)C(Br)C1O)c1ccccc1 (stereo not shown) | 8.3%
COCCn1cnnc1SCC(=O)Nc1sccc1C(N)=O | -2.66%
O=C(/C=C/c1ccc(N2CCCCC2)c([N+](=O)[O-])c1)c1ccc(S(=O)(=O)N2CCCC2)cc1 | 10.3%
CC1CCC2(CC1)NC(=O)N(CC(=O)c1cccn1C)C2=O (stereo not shown) | -3.51%
O=C(O)Cn1nnc(COc2ccccc2)n1 | 12.2%
Cc1cc([N+](=O)[O-])nn1CCCC(=O)Nc1cccc(Cl)c1Cl | 0.71%
NS(=O)(=O)c1ccc(CCNC(=O)c2cc([N+](=O)[O-])ccc2N2CCOCC2)cc1 | -15.2%

SMILES | hERG current change (%, negative = inhibition) at 10uM
CCN(CC)C(=O)CC(c1cc(OC)c(OC)c(OC)c1)c1c(OC)cc(OC)c2ccc(=O)oc12 (stereo not shown) | 4.5%
Cc1ccc(NC(=O)Cn2c(=O)n(Cc3ccco3)c(=O)c3ccccc32)c(C)c1 | -9.09%
CC(C)(C)c1ccc(-c2nnc(N)s2)cc1 | 6.02%
COC(=O)C1CCN(S(=O)(=O)CCNC(=O)c2ccc3c(c2)OCO3)CC1 | 3.6%
O=C(NCc1cnc2ccccn12)C1CCC(=O)N(Cc2cccc(F)c2)C1 (stereo not shown) | 19.6%
CC(C)CC(=O)N1CCN(Cc2ccccc2[N+](=O)[O-])CC1.O=C(O)C(=O)O | -7.35%
CSc1ccccc1NC(=O)COc1ccc(S(=O)(=O)N2CCCC2)cc1 | -10.4%
CCOc1ccc(CN(C)CC(=O)NCc2ccccc2Cl)cc1 | -89.1%
CCN(CC(=O)Nc1ccc(C(=O)Nc2ccc(OC)cc2)cc1)Cc1nc2ccccc2c(=O)[nH]1 | 5.15%
C/C(=N\N=C(N)N)c1cccc([N+](=O)[O-])c1 | -32.1%
O=C(NCCC1=CCCCC1)c1c(O)nc2ccccn2c1=O | 0.215%
COc1cccc(CNC(=O)c2cc(COc3c(F)cccc3F)on2)c1 | -1.04%
CCOc1cc(/C=C2/C(=O)ON=C2C)ccc1OCc1ccc(F)cc1 | 7.07%
Cc1[nH]nc2ncc(C(=O)c3cc(Cl)cc(Cl)c3O)cc12 | 9.79%
Cc1cc(S(=O)(=O)NCCc2ccncc2)cc(C)c1F | 2.81%
CCOC(=O)C1CCN(C(=O)C(CCSC)NC(=O)c2ccccc2OC)CC1 (stereo not shown) | -16.2%
CCCCn1c(N)c(N(CCOC)C(=O)c2ccc(-c3ccccc3)cc2)c(=O)[nH]c1=O | 4.65%
COc1ccc(N(Cc2cc3cc(C)ccc3[nH]c2=O)C(C)=O)cc1 | 11.2%
CCOc1ccc(C2=C(C=Nc3c(C)n(C)n(-c4ccccc4)c3=O)C(c3ccc(F)cc3)c3ccccc3O2)cc1 (stereo not shown) | 4.04%
O=C(Cn1cnc2ccc(Cl)cc2c1=O)c1cccs1 | 4.78%
CC(=O)Nc1ccc(SCc2c(C)noc2C)cc1 | 3.5%

— PMC4336329 (PLoS ONE, 2015)
